Here are results for 130 sequences from a collection of fitness landscapes (doi:10.1038/s41467-024-54723-y).

The full ranking holds about 18,000 sequences; the median of “TetR repression strength (sort-seq, GFP reporter)” is about 0.23, and the highest 2% start at about 0.68. The list shows a part of the results.

In this test the target is TetR (class B, Tn10) (UniProt P04483). The test is described as follows: TetR repression strength (sort-seq, GFP reporter) (relative to tetO2 = 1); higher = stronger repression. As to conditions: E. coli. The method, boiled down: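 In LB with 50 µg/mL chloramphenicol, E. coli SIG10-MAX holding a low-copy library with eight randomized operator positions between a constitutive promoter and sfGFP, plus constitutive TetR, grew for 5 h at 37 °C. FACS then sorted 10^6 cells into 13 fluorescence bins for Illumina sequencing of each bin. Repression strength equals the top bin index plus one less the read-weighted mean bin, normalized to the unaltered operator. Values from three independent transformations were averaged when reads were ≥30 in every replicate and the CV was ≤0.5.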
Chain of UniProt P04483 (P04483 whole entry): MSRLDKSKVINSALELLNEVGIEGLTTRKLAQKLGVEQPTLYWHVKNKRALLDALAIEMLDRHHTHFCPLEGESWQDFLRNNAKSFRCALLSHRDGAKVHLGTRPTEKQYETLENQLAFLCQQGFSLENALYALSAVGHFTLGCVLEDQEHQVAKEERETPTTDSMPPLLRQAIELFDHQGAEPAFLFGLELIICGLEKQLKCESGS
In turn, TCCCGGTAAGTAGAAGAGA returned a TetR repression strength of 0.32.
As for TCCCTGGTAGTGGGAGAGA, the TetR repression strength came out at 0.212.
On to TCCCGGAGAGTTAGGGAGA, for which the TetR repression strength came out at 0.15.
As for TCCCGCTTAGTACGTGAGA, the figure is 0.194; as for TCCCGCGTAGTGGCGGAGA, 0.306.
TCCCTGAGAGTTAAGGAGA registered a TetR repression strength of 0.105.
For TCCCGTTAAGTGTTGGAGA, the TetR repression strength was found to be 0.188.
Turning to TCCCGGCAAGTATGGGAGA, the TetR repression strength worked out at 0.351.
The sequence TCCCTTAAAGTAGGGGAGA displayed a TetR repression strength of 0.0786.
The figure for TCCCGGATAGTAAGCGAGA is 0.164.
TCCCGGCCAGTGACGGAGA gave a TetR repression strength of 0.647.
TCCCAGTGAGTAGAGGAGA yielded a TetR repression strength of 0.517.
The figure for TCCCAGGGAGTCGGCGAGA is 0.301; for TCCCTCCTAGTATGGGAGA it is 0.42.
Turning to TCCCCTGAAGTGAGAGAGA, the TetR repression strength amounted to 0.352.
TCCCGCGAAGTGTTTGAGA: the TetR repression strength came out at 0.197.
TCCCCGGAAGTATGAGAGA had a TetR repression strength of 0.37.
For the sequence TCCCTAATAGTGGGTGAGA, the TetR repression strength worked out at 0.159.
Turning to TCCCAGGGAGTTCGTGAGA, the TetR repression strength worked out at 0.16.
The figure for TCCCACTCAGTGACCGAGA is 0.488; for TCCCCACGAGTTAGGGAGA it is 0.27.
The sequence TCCCTCCGAGTCCTGGAGA yielded a TetR repression strength of 0.193.
Sequence TCCCAGGGAGTCTGCGAGA had a TetR repression strength of 0.0813.
The figure for TCCCAGGTAGTGGTCGAGA is 0.202.
For the sequence TCCCGATGAGTCTGGGAGA, the TetR repression strength turned out to be 0.247.
TCCCAGGCAGTGAGAGAGA showed a TetR repression strength of 0.147.
As for TCCCGTGAAGTAGTGGAGA, the figure is 0.0271; as for TCCCCGGCAGTCGCAGAGA, 0.207; as for TCCCCTCCAGTGTCCGAGA, 0.516.
Turning to TCCCTAGTAGTCATTGAGA, the TetR repression strength came to 0.331.
TCCCGAATAGTTGGTGAGA returned a TetR repression strength of 0.275.
The sequence TCCCGGGTAGTTCGAGAGA returned a TetR repression strength of 0.289.
TCCCGGACAGTACCGGAGA gave a TetR repression strength of 0.144.
On to TCCCAAGCAGTGTACGAGA, for which the TetR repression strength amounted to 0.182.
The sequence TCCCTGTCAGTATGGGAGA came in with a TetR repression strength of 0.112.
As for TCCCGAAGAGTCTGGGAGA, the figure is 0.308; as for TCCCTAGTAGTGAGCGAGA, 0.159; as for TCCCCCACAGTGTGGGAGA, 0.156.
The figure for TCCCTGCGAGTGGACGAGA is 0.279; for TCCCCTGTAGTTGTGGAGA it is 0.0499.
As for TCCCGGGGAGTTATCGAGA, the figure is 0.161.
Sequence TCCCGCATAGTAGCGGAGA displayed a TetR repression strength of 0.394.
Sequence TCCCGTTGAGTGACGGAGA had a TetR repression strength of 0.219.
As to TCCCAGTTAGTGCGGGAGA, the TetR repression strength was found to be 0.036.
As for TCCCCTCCAGTGAGTGAGA, the figure is 0.294; as for TCCCAGAAAGTGAATGAGA, 0.211; as for TCCCTGGGAGTTGGGGAGA, 0.211.
The figure for TCCCCTGTAGTTGTTGAGA is 0.346; for TCCCTAATAGTGGGAGAGA it is 0.295.
As for TCCCTGGCAGTTGGTGAGA, the TetR repression strength was 0.308.
For the sequence TCCCCCATAGTGTCCGAGA, the TetR repression strength is 0.29.
For the sequence TCCCATATAGTGTACGAGA, the TetR repression strength is 0.0769.
For the sequence TCCCTCTAAGTACATGAGA, the TetR repression strength is 0.209.
As to TCCCTGACAGTCCCGGAGA, the TetR repression strength was 0.354.
For TCCCTAGCAGTGCGGGAGA, the TetR repression strength came out at 0.174.
With TCCCCTTTAGTTTCCGAGA, the TetR repression strength was 0.378.
As to TCCCCGTGAGTCGGGGAGA, the TetR repression strength worked out at 0.459.
The figure for TCCCATCTAGTGGGGGAGA is 0.318.
The sequence TCCCACGTAGTCCAGGAGA returned a TetR repression strength of 0.23.
In turn, TCCCCGTAAGTGAATGAGA registered a TetR repression strength of 0.0898.
As to TCCCGTTTAGTGTGAGAGA, the TetR repression strength was 0.322.
On to TCCCGGTTAGTCTGTGAGA, for which the TetR repression strength came out at 0.373.
As for TCCCACCAAGTATTGGAGA, the TetR repression strength was 0.207.
For TCCCGGGCAGTATTGGAGA, the TetR repression strength stood at 0.11.
As for TCCCACGTAGTGCCGGAGA, the TetR repression strength was determined as 0.213.
With TCCCTAAAAGTTGAGGAGA, the TetR repression strength worked out at 0.206.
In the case of TCCCAGAGAGTCGCTGAGA, the TetR repression strength came to 0.195.
Regarding TCCCAAGGAGTAGGGGAGA, the TetR repression strength came out at 0.0346.
As for TCCCTAGCAGTCTTTGAGA, the figure is 0.384; as for TCCCCACAAGTGGACGAGA, 0.155; as for TCCCGAAAAGTGGGGGAGA, 0.146.
Sequence TCCCAGGTAGTTACGGAGA returned a TetR repression strength of 0.276.
Sequence TCCCGTGAAGTCGGTGAGA registered a TetR repression strength of 0.138.
TCCCCGAGAGTATAAGAGA: the TetR repression strength is 0.292.
On to TCCCGAATAGTGATTGAGA, for which the TetR repression strength was determined as 0.411.
Turning to TCCCCTGGAGTAATCGAGA, the TetR repression strength came to 0.354.
As for TCCCCGGCAGTAAAGGAGA, the figure is 0.232.
In turn, TCCCAAAAAGTGGAAGAGA yielded a TetR repression strength of 0.199.
For TCCCGCTGAGTTCATGAGA, the TetR repression strength worked out at 0.0774.
The figure for TCCCGTCGAGTTTGAGAGA is 0.274.
The figure for TCCCGCCAAGTTAGGGAGA is 0.249.
Consider TCCCCGTAAGTACAGGAGA, for which the TetR repression strength stood at 0.368.
In the case of TCCCAGGAAGTGTGTGAGA, the TetR repression strength is 0.0581.
TCCCCGCTAGTTGGAGAGA showed a TetR repression strength of 0.246.
Turning to TCCCATACAGTCGAAGAGA, the TetR repression strength worked out at 0.241.
TCCCGCAAAGTGAGTGAGA had a TetR repression strength of 0.26.
On to TCCCTTCAAGTGTAAGAGA, for which the TetR repression strength was 0.158.
For the sequence TCCCCCGCAGTACCGGAGA, the TetR repression strength was determined as 0.146.
In the case of TCCCTCAAAGTTGGGGAGA, the TetR repression strength came out at 0.133.
For TCCCTGTCAGTCGCAGAGA, the TetR repression strength came out at 0.188.
TCCCTGATAGTCCTTGAGA showed a TetR repression strength of 0.249.
For TCCCGGCTAGTGAGGGAGA, the TetR repression strength turned out to be 0.124.
The sequence TCCCCGCAAGTGATCGAGA displayed a TetR repression strength of 0.139.
The sequence TCCCCGTTAGTGATCGAGA had a TetR repression strength of 0.188.
TCCCTGTGAGTGTTGGAGA: the TetR repression strength came out at 0.228.
TCCCCTATAGTTTAAGAGA displayed a TetR repression strength of 0.335.
Sequence TCCCCTTGAGTGGGGGAGA displayed a TetR repression strength of 0.258.
TCCCTCACAGTCGGCGAGA: the TetR repression strength worked out at 0.166.
Sequence TCCCAAATAGTAAGTGAGA had a TetR repression strength of 0.203.
TCCCAAGGAGTGGCGGAGA: the TetR repression strength turned out to be 0.108.
As for TCCCCGGCAGTGAAGGAGA, the figure is 0.0806; as for TCCCACTCAGTTCTTGAGA, 0.356; as for TCCCTCCAAGTCCCTGAGA, 0.366.
As for TCCCTTCAAGTGCGGGAGA, the figure is 0.0975.
The sequence TCCCATTCAGTCTTAGAGA had a TetR repression strength of 0.417.
On to TCCCGTCCAGTGGGTGAGA, for which the TetR repression strength turned out to be 0.21.
In turn, TCCCGGATAGTCCATGAGA had a TetR repression strength of 0.194.
For the sequence TCCCAATCAGTGTTAGAGA, the TetR repression strength was determined as 0.617.
Sequence TCCCTCGAAGTGAGTGAGA had a TetR repression strength of 0.472.
In turn, TCCCCCAGAGTGCGTGAGA yielded a TetR repression strength of 0.195.
As to TCCCTGATAGTTTTCGAGA, the TetR repression strength was 0.301.
Consider TCCCGTAGAGTGTCGGAGA, for which the TetR repression strength was 0.207.
Consider TCCCCACAAGTGCTCGAGA, for which the TetR repression strength is 0.37.
TCCCTCGAAGTGAACGAGA had a TetR repression strength of 0.187.
As for TCCCTCGCAGTTTACGAGA, the figure is 0.142; as for TCCCCCTGAGTATGAGAGA, 0.33.
The figure for TCCCAACGAGTTGACGAGA is 0.256.
The figure for TCCCGAGGAGTGGTTGAGA is 0.222; for TCCCCGGGAGTGCGTGAGA it is 0.279; for TCCCGCGCAGTCTAGGAGA it is 0.0919.
In turn, TCCCCTTTAGTTCAAGAGA had a TetR repression strength of 0.39.
The sequence TCCCCCAGAGTAATAGAGA registered a TetR repression strength of 0.528.
With TCCCGTTTAGTATTCGAGA, the TetR repression strength was determined as 0.341.
For TCCCCAGTAGTACGAGAGA, the TetR repression strength turned out to be 0.318.
As for TCCCCATGAGTGAGCGAGA, the TetR repression strength came out at 0.169.
TCCCGGTTAGTGGAGGAGA: the TetR repression strength was 0.169.
With TCCCTACCAGTGATAGAGA, the TetR repression strength worked out at 0.94.
For the sequence TCCCACACAGTTGTCGAGA, the TetR repression strength turned out to be 0.222.
The sequence TCCCTATAAGTCGTCGAGA had a TetR repression strength of 0.307.
Regarding TCCCAGGAAGTTTCAGAGA, the TetR repression strength came to 0.104.
